Source: the DeepSol protein solubility set

Assay: soluble on expression in E. coli; label from the status in PepcDB or PDB records

Row | Sequence | soluble on expression in E. coli
1 | MAHHHHHHSLKIAEIQLFQHDLPVVNGPYRIASGDVWSLTTTIVKIIAEDGTIGWGETCPVGPTYAEAHAGGALAALEVLASGLAGAEALPLPLHTRMDSLLCGHNYAKSALDIAVHDLWGKRLGVPVHELLGGALTDSVSSYYSLGVMEPDEAARQALEKQREGYSRLQVKLGARPIEIDIEAIRKVWEAVRGTGIALAADGNRGWTTRDALRFSRECPDIPFVMEQPCNSFEDLEAIRPLCHHALYMDEDGTSLNTVITAAATSLVDGFGMKVSRIGGLQHMRAFRDFCAARNLPHTCDDAWGGDIVSAACTHIASTVLPRLMEGAWLAQPYVAEHYDAENGVRIEGGRIRVPQGPGLGLTIDPERFGPPLFSA | soluble
2 | MAVRYELAIGLNKGHKTSKIRNVKYTGDKKVKGLRGSRLKNIQTRHTKFMRDLVREVVGHAPYEKRTMELLKVSKDKRALKFLKRRLGTHIRAKRKREELSNILTQLRKAQTHAK | not soluble
3 | MGPEIERKSHLAYQVARFEAVAMGFPVQYRQVVVEFYYHGRLDGSSGTLATAVGLLALFTGVEISPRFAITGSLDVFGWPPYCCLFSKMSSGGGNQKSDGQVEEDAAECKFPKEFETTTCDALLTAEVYLLLEHRRQSSESKDEIEEMSEVFIKTLNYARRMSRFKNRETIRAVRAIFSEKHLHKFEVAQIANLCPENAEEAKALVPSLENKIEESELEEVLKDLQSKRTFQ | not soluble
4 | MGSDKIHHHHHHLSFLQNVVLVDMITIKKGLELPIAGGPEQVIHNGPAIKHVATLGEEYIGLRPTMKIKVGDKVQKGQVLFEDKKNLGVKYTALASGTILDINRGAQRVLQSVVIQVEGNDSVSFAKYDATALDTLDSQLVRDNLIESGLWTALRTRPFSKVPAVDSSAAGIFVTAIDTQPLAADPVVVIREHKEDFANGLKILARLTEGKVYLCKAPGADIPAANAQVEEFAGVHPAGLVGTHIHFLLPASAKRTVWHIGYQDVIAIGQLFTTGELNTERVVAIAGPKAAKPRLVRTVLGASMVELTAGETLAGNVRLISGSVLNGRTAVGPQGYLGRYHVQVSLLEEGTEKEFLGWVLPGSNKFSITRAFLGHLTPSRLFSMTTSTGGSDRAMVPIGNYERVMPLDILPTMLLRDLVSGDFDGAATLGALELDEEDLALCTFVCPGKYDYGSYLRDCLDTIEREG | not soluble
5 | MPISVDKAVIARLKIQGETFEILVDPYLARDFKEGKNVPIEEILATPYVFKDAHKGDKASEKEMEKIFGTSDPYEVAKIILKKGEVQLTAQQRREMLEEKKRQIATIIHKHAVDPRTGYPHPVDRILRAMEEVGVRVDIFKDAEAQVQDVIKALRRVLPLRIEMKVIAVKIPGEYVGRSYGEVRKFGRIKKEEWGSDGSWMFLIEIPGGVEEEFYEKLNALTKGNAQTKLIERKGLLEHHHHHH | soluble
6 | MRAKGLLKEYEVVGRKLPSEKEPQTPLYKMRIFAPDNIVAKSRFWYFLRQLKKFKKTTGEIVSIKQVYETSPVKIKNFGIWLRYDSRSGTHNMYREYRDLTVGGAVTQCYRDMGARHRARAHSIQIIKVDSIPAAKTRRVHVKQFHDSKIKFPLVQRVHHKGNRKLFSFRKPRTYFQLEHHHHHH | soluble
7 | MRHMFFGVPSQDTQSVAVLSYSFFKFLRIFYHFDLLNIRFKFSTSTVSGCKAIRAERMAIPSNLMQFSEDIIKQLTPEEIDEFREAFMMFDKDGNGTISTKELGIAMRSLGQNPTEQEILEMINEVDIDGNGQIEFPEFCVMMKRMMKETDSEMIREAFRVFDKDGNGVITAQEFRYFMVHMGMQFSEEEVDEMIKEVDVDGDGEIDYEEFVKMMSNQ | not soluble
8 | MSLRKINFVTGNVKKLEEVKAILKNFEVSNVDVDLDEFQGEPEFIAERKCREAVEAVKGPVLVEDTSLCFNAMGGLPGPYIKWFLKNLKPEGLHNMLAGFSDKTAYAQCIFAYTEGLGKPIHVFAGKCPGQIVAPRGDTAFGWDPCFQPDGFKETFGEMDKDVKNEISHRAKALELLKEYFQNN | not soluble
9 | SNKQFHTGIEIKVWAIACFAPQRQCTEVHLKSFTEQLRKISRDAGMPIQGQPCFCKYAQGADSVEPMFRHLKNTYAGLQLVVVILPGKTPVYAEVKRVGDTVLGMATQCVQMKNVQRTTPQTLSNLCLKINVKLGGVN | soluble
